# Reference: the supplement of paper PMC4604168 (melanoma cell lines)
# This is one part of the list. Single values are uncertain, as repeats are few or missing.
# Tested on: MEL-HO
# Experiment: cell count relative to DMSO control; melanoma cells; higher = more viable cells
# Details: library dose: standard library concentration; 72 h
# 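Note: cells treated in 1,536-well plates, then fixed and DAPI-stained, with nuclei counted from automated high-throughput microscope images.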
row,SMILES,cell count [%]
1,"COc1cc2c(Oc3ccc4[nH]c(C)cc4c3F)ncnc2cc1OCCCN1CCCC1 [cediranib] + CCN(CC)CCCCNc1ncc2cc(-c3cc(OC)cc(OC)c3)c(NC(=O)NC(C)(C)C)nc2n1 [PD173074] (first compound 2 µM, partner dose 0.5 µM)",112
2,"NC(=O)c1ccc(N(C(N)=O)c2c(F)cccc2F)nc1-c1ccc(F)cc1F + CN(C)S(=O)(=O)c1ccc2c(c1)/C(=C/c1cc3c([nH]1)CCCC3)C(=O)N2 [SU6656] (first compound 2 µM, partner dose 2 µM)",92.9
3,"CCCCCCCCc1ccc(CCC(N)(CO)CO)cc1 [fingolimod] + COCC[n+]1c2c(n(Cc3cnccn3)c1C)C(=O)c1ccccc1C2=O [YM155] (first compound 10 µM, partner dose 0.002 µM)",2.13
4,"CC(C)(C)c1cnc(CSc2cnc(NC(=O)C3CCNCC3)s2)o1 + COc1ccc2c(c1)CCC1C2CCC2(C)C(NCCCCCCN3C(=O)C=CC3=O)CCC12 [U73122] (first compound 0.05 µM, partner dose 2 µM)",99.5
5,"CC(C)(C)c1cnc(CSc2cnc(NC(=O)C3CCNCC3)s2)o1 + COc1ccc(COc2ccc(Cc3cnc(N)nc3N)cc2OC)cc1 [GW2580] (first compound 0.05 µM, partner dose 5 µM)",106

# Tested on: MZ2-MEL
# Experiment: as above
# Details: library dose: standard library concentration; 72 h
row,SMILES,cell count [%]
1,"COc1cc2c(Oc3ccc4[nH]c(C)cc4c3F)ncnc2cc1OCCCN1CCCC1 [cediranib] + N#Cc1c(O)c2c(-c3ccc(-c4ccccc4O)cc3)csc2[nH]c1=O [A769662] (first compound 2 µM, partner dose 10 µM)",96.1
2,"CC(C)(C)c1cnc(CSc2cnc(NC(=O)C3CCNCC3)s2)o1 + CN(C)S(=O)(=O)c1ccc2c(c1)/C(=C/c1cc3c([nH]1)CCCC3)C(=O)N2 [SU6656] (first compound 0.05 µM, partner dose 2 µM)",89.8
3,"COc1cc2c(Oc3ccc4[nH]c(C)cc4c3F)ncnc2cc1OCCCN1CCCC1 [cediranib] + COc1ccc(COc2ccc(Cc3cnc(N)nc3N)cc2OC)cc1 [GW2580] (first compound 2 µM, partner dose 5 µM)",94.6
4,"CCCCCCCCc1ccc(CCC(N)(CO)CO)cc1 [fingolimod] + OCCn1cc(-c2cnc3nnn(Cc4ccc5ncccc5c4)c3n2)cn1 [PF04217903] (first compound 10 µM, partner dose 5 µM)",66.9
5,"NC(=O)c1ccc(N(C(N)=O)c2c(F)cccc2F)nc1-c1ccc(F)cc1F + Clc1ccc(Nc2nnc(Cc3ccncc3)c3ccccc23)cc1 [vatalanib] (first compound 2 µM, partner dose 10 µM)",72
6,"CCc1ccc(CCOc2ccc(CC3SC(=O)NC3=O)cc2)nc1 (stereo unspecified) [pioglitazone] + CC(C)CCN1c2nc(Nc3cc(F)c(O)c(F)c3)ncc2N(C)C(=O)C1C [BID1870] (first compound 10 µM, partner dose 1 µM)",91.1
7,"Cc1ccc(NC(=O)c2cccc(N(C)C)c2)cc1NC(=O)c1ccc(O)cc1 + CN(C)S(=O)(=O)c1ccc2c(c1)/C(=C/c1cc3c([nH]1)CCCC3)C(=O)N2 [SU6656] (first compound 10 µM, partner dose 2 µM)",84.1
8,"NC(=O)c1ccc(N(C(N)=O)c2c(F)cccc2F)nc1-c1ccc(F)cc1F + Cc1cc(N2CCOCC2)cc2[nH]c(-c3c(NC[C@@H](O)c4cccc(Cl)c4)cc[nH]c3=O)nc12 [BMS536924] (first compound 2 µM, partner dose 1 µM)",148
9,"Cc1ccc(NC(=O)c2cccc(N(C)C)c2)cc1NC(=O)c1ccc(O)cc1 + CCCCCCCCCCCC1=C(O)C(=O)C=C(O)C1=O [Embelin] (first compound 10 µM, partner dose 6 µM)",67.2
10,"CN(NC(=O)CC(=O)NN(C)C(=S)c1ccccc1)C(=S)c1ccccc1 + Cn1cc(/C=C2\C(=O)Nc3cccnc32)c2ccccc21 [GW441756] (first compound 0.03 µM, partner dose 2 µM)",75
11,"CCCCCCCCc1ccc(CCC(N)(CO)CO)cc1 [fingolimod] + O=C(O)[C@@H]1[O][Sb](=[O])([O][Sb]2(=[O])[O][C@H]([C@H](O)CO)[C@H](O)[C@H](C(=O)O)[O]2)[O][C@H]([C@H](O)CO)[C@@H]1O [stibogluconate] (first compound 10 µM, partner dose 10 µM)",76.7
